# Laboratory results published in a collection of fitness landscapes (doi:10.1016/j.celrep.2020.107928).
# The full ranking holds about 81,000 sequences; the median of “one-hybrid fitness for binding NBS DNA” is about -0.1, and the highest 2% start at about 0.36. The list shows a part of the results.
# B1: Caulobacter ParB omega fusion; a variant is named by its letters at X, in order, B8GW30 (parent)
# chain: MESVVVGEPGMSEGRRGLGRGLSALLGEVDAAPAQAPGEQLGGSREAPIEILQRNPDQPRRTFREEDLEDLSNSIREKGVLQPILVRPSPDTAGEYQIVAGERAWRAAQRAGLKTVPIMVRELDDLAVLEIGIIENVQRADLNVLEEALSYKVLMEKFERTQENIAQTIGKSXSHVANXMRLLXLPDEVQSYLVSGELTAXHARAIAAAADPVALAKQIIEGGLSVRETEALARKAPNLSAGKSKGGRPPRVKDTDTQALESDLSSVLGLDVSIDHRGSTGTLTITYATLEQLDDLCNRLTRGI
# Variants of: B1
# Assay: one-hybrid fitness for binding NBS DNA (the Noc-binding site; scaled: cognate 1, non-cognate 0); higher = stronger binding
# Conditions: with NBS DNA site
# How it was run: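 The reporter was HIS3, with the binding site 19 bp from the promoter, in E. coli USO used for bacterial one-hybrid selection of Caulobacter ParB libraries with four specificity codons randomised. Growth was on M9 lacking histidine, with 0.1 mM IPTG and 5 mM 3-AT, for 48 hours at 37°C. Illumina sequencing covered plasmids before and after selection; three replicate libraries were pooled and variants with under 10 reads dropped. A fitness score is the log change in variant-to-wild-type read ratio, rescaled to the cognate and non-cognate references.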
row,Variant,one-hybrid fitness for binding NBS DNA
1,DDPE,≤ 0.2
2,EWPD,≤ 0.2
3,TPAE,≤ 0.2
4,HRFS,≤ 0.2
5,GIPD,≤ 0.2
6,SQEI,≤ 0.2
7,KPQS,≤ 0.2
8,TACS,≤ 0.2
9,LCPE,≤ 0.2
10,QLAV,≤ 0.2
11,NGRG,≤ 0.2
12,SFLF,≤ 0.2
13,WNIS,≤ 0.2
14,SQHY,≤ 0.2
15,TWVS,≤ 0.2
16,GEVF,≤ 0.2
17,TQFS,≤ 0.2
18,PACN,≤ 0.2
19,PIEA,≤ 0.2
20,IPWR,≤ 0.2
21,FKKT,≤ 0.2
22,RFGR,0.23
23,HFAM,≤ 0.2
24,NASS,≤ 0.2

row,Variant,one-hybrid fitness for binding NBS DNA
1,DESS,≤ 0.2
2,MYGC,≤ 0.2
3,MNAW,≤ 0.2
4,HMHM,≤ 0.2
5,LIWY,≤ 0.2
6,QTET,0.439
7,TRWV,≤ 0.2
8,ILGS,≤ 0.2
9,DVWT,≤ 0.2
10,CTFC,≤ 0.2
11,TQPW,≤ 0.2
12,KLRN,≤ 0.2
13,EHLW,≤ 0.2
14,SCER,≤ 0.2
15,HVKV,≤ 0.2
16,VRLS,≤ 0.2
17,NIII,≤ 0.2
18,HCPC,≤ 0.2
19,VPAH,≤ 0.2
20,WAGN,≤ 0.2
21,CPIL,≤ 0.2
22,STDR,≤ 0.2
23,NNNA,≤ 0.2
24,AITL,≤ 0.2

row,Variant,one-hybrid fitness for binding NBS DNA
1,SPGL,≤ 0.2
2,CLCV,≤ 0.2
3,TTLC,≤ 0.2
4,ATHM,≤ 0.2
5,QQFM,≤ 0.2
6,SPEG,≤ 0.2
7,HSNT,≤ 0.2
8,YHRV,≤ 0.2
9,WIVS,≤ 0.2
10,EAPT,0.239
11,VKIM,≤ 0.2
12,GDNR,≤ 0.2
13,NSTN,≤ 0.2
14,NSDW,≤ 0.2
15,YPDE,≤ 0.2
16,QKYG,≤ 0.2
17,AYRT,≤ 0.2
18,KTMS,≤ 0.2
19,GCTC,≤ 0.2
20,PFRC,≤ 0.2
21,TLWD,≤ 0.2
22,KMTH,≤ 0.2
23,EELG,≤ 0.2
24,LHRP,≤ 0.2

row,Variant,one-hybrid fitness for binding NBS DNA
1,RYDQ,≤ 0.2
2,YSTD,≤ 0.2
3,TATV,≤ 0.2
4,NTVS,≤ 0.2
5,NRLA,≤ 0.2
6,KNHG,≤ 0.2
7,DDNA,≤ 0.2
8,PTDK,≤ 0.2
9,AFHL,≤ 0.2
10,PYTW,≤ 0.2
11,QDSC,≤ 0.2
12,TTSH,≤ 0.2
13,PFGA,≤ 0.2
14,PANN,≤ 0.2
15,MVRC,≤ 0.2
16,VVSA,≤ 0.2
17,AGYC,≤ 0.2
18,LKDM,≤ 0.2
19,TKFR,≤ 0.2
20,VSVV,≤ 0.2
21,AWTE,≤ 0.2
22,CNGT,≤ 0.2
23,CITS,≤ 0.2
24,WCTS,≤ 0.2

row,Variant,one-hybrid fitness for binding NBS DNA
1,SHCT,≤ 0.2
2,QCQW,≤ 0.2
3,GQTT,≤ 0.2
4,AHTG,≤ 0.2
5,KKPL,≤ 0.2
6,PWNH,≤ 0.2
7,QYRR,0.979
8,IAAT,≤ 0.2
9,WKPT,≤ 0.2
10,NLAS,≤ 0.2
11,YAFA,≤ 0.2
12,TKMA,≤ 0.2
13,AKIG,≤ 0.2
14,PRNQ,≤ 0.2
15,QPTT,≤ 0.2
16,QQAY,0.228
17,QACL,≤ 0.2
18,QWAE,≤ 0.2
19,ARIT,≤ 0.2
20,GVRV,≤ 0.2
21,YPAM,≤ 0.2
22,RQQV,≤ 0.2
23,GITG,≤ 0.2
24,RLTL,≤ 0.2

row,Variant,one-hybrid fitness for binding NBS DNA
1,PKVS,≤ 0.2
2,RTDK,≤ 0.2
3,SLNN,≤ 0.2
4,SVLW,≤ 0.2
5,RKCR,0.552
6,IVWV,≤ 0.2
7,QKKV,0.406
8,WNPR,≤ 0.2
9,PALG,0.248
10,LCGD,≤ 0.2
11,NKRL,≤ 0.2
12,SMLD,≤ 0.2
13,KRWV,≤ 0.2
14,MVCR,≤ 0.2
15,PEPL,≤ 0.2
16,DKCS,≤ 0.2
17,YYWR,≤ 0.2
18,QGHE,≤ 0.2
19,MTIP,≤ 0.2
20,DTLG,≤ 0.2
21,QHYD,≤ 0.2
22,VVGG,≤ 0.2
23,MSWC,≤ 0.2
24,FTIR,≤ 0.2

row,Variant,one-hybrid fitness for binding NBS DNA
1,RVFM,≤ 0.2
2,PYRY,≤ 0.2
3,DKVY,≤ 0.2
4,GTHR,≤ 0.2
5,HARA,≤ 0.2
6,APES,≤ 0.2
7,RVPN,≤ 0.2
8,CEHR,≤ 0.2
9,QTFW,≤ 0.2
10,SPDY,≤ 0.2
11,YPEI,≤ 0.2
12,HYMF,≤ 0.2
13,SDMT,≤ 0.2
14,RMTP,≤ 0.2
15,QLPC,≤ 0.2
16,RCGR,0.523
17,LSDL,≤ 0.2
18,VQLM,≤ 0.2
19,QYKA,0.531
20,DRTW,≤ 0.2
21,ALMR,≤ 0.2
22,GSRN,≤ 0.2
23,MHLF,≤ 0.2
24,TPVP,≤ 0.2

row,Variant,one-hybrid fitness for binding NBS DNA
1,GKEC,≤ 0.2
2,HLCP,≤ 0.2
3,QMWS,0.261
4,GVFS,≤ 0.2
5,LMTV,≤ 0.2
6,IDTI,≤ 0.2
7,QSFP,≤ 0.2
8,LTGN,≤ 0.2
9,LKWR,≤ 0.2
10,YSQS,≤ 0.2
11,LSWT,≤ 0.2
12,MNRS,≤ 0.2
13,VNSC,≤ 0.2
14,RMID,≤ 0.2
15,AMSS,≤ 0.2
16,VKAR,≤ 0.2
17,LIYT,≤ 0.2
18,KHNG,≤ 0.2
19,CHLN,≤ 0.2
20,IETS,≤ 0.2
21,DDIT,≤ 0.2
22,TFQS,≤ 0.2
23,RPDL,≤ 0.2
24,HADL,≤ 0.2

row,Variant,one-hybrid fitness for binding NBS DNA
1,RSRC,0.355
2,RPLQ,≤ 0.2
3,EPDR,≤ 0.2
4,VMTF,≤ 0.2
5,IYTA,≤ 0.2
6,TNAM,≤ 0.2
7,PLAQ,≤ 0.2
8,PFHS,≤ 0.2
9,GYMF,≤ 0.2
10,QLRR,0.943
11,DDRL,≤ 0.2
12,NERL,≤ 0.2
13,KNKM,≤ 0.2
14,YPDW,≤ 0.2
15,AQSE,≤ 0.2
16,TTRH,≤ 0.2
17,MHPG,≤ 0.2
18,FGGI,≤ 0.2
19,MIMG,≤ 0.2
20,GANL,≤ 0.2
21,ASPK,≤ 0.2
22,RMRH,0.362
23,NRMY,≤ 0.2
24,PITC,≤ 0.2

row,Variant,one-hybrid fitness for binding NBS DNA
1,GWFS,≤ 0.2
2,TEWV,≤ 0.2
3,LYAF,≤ 0.2
4,RKAQ,≤ 0.2
5,PRIW,≤ 0.2
6,CRTD,≤ 0.2
7,VCLK,≤ 0.2
8,GSYS,≤ 0.2
9,VSRY,≤ 0.2
10,KAGL,≤ 0.2
11,PFTY,≤ 0.2
12,SPKS,≤ 0.2
13,CKYG,≤ 0.2
14,TCDS,≤ 0.2
15,WVTG,≤ 0.2
16,RMSL,≤ 0.2
17,KQRT,0.225
18,YDLR,≤ 0.2
19,YGAT,≤ 0.2
20,RCTN,≤ 0.2
21,GFEG,≤ 0.2
22,QPRK,≤ 0.2
23,QGTS,≤ 0.2
24,QMFC,≤ 0.2

row,Variant,one-hybrid fitness for binding NBS DNA
1,YAFL,≤ 0.2
2,PKGR,≤ 0.2
3,QCPF,≤ 0.2
4,DVPT,≤ 0.2
5,EVYD,≤ 0.2
6,HNNP,≤ 0.2
7,KHAR,≤ 0.2
8,WVEL,≤ 0.2
9,QMEF,≤ 0.2
10,NILF,≤ 0.2
11,SVKD,≤ 0.2
12,KDKT,≤ 0.2
13,RQGV,≤ 0.2
14,KQAT,≤ 0.2
15,GPRV,≤ 0.2
16,MHRY,≤ 0.2
17,SLQS,≤ 0.2
18,NMAL,≤ 0.2
19,NRRF,≤ 0.2
20,GSPL,≤ 0.2
21,RVEM,≤ 0.2
22,LPID,≤ 0.2
23,RPMN,≤ 0.2
24,QDDA,≤ 0.2

row,Variant,one-hybrid fitness for binding NBS DNA
1,MFSF,≤ 0.2
2,QIEW,≤ 0.2
3,HLPP,≤ 0.2
4,WRYA,≤ 0.2
5,VMPS,≤ 0.2
6,LCSG,≤ 0.2
7,VGME,≤ 0.2
8,RKST,0.639
9,AFEY,≤ 0.2
10,DYSA,≤ 0.2
11,AKCK,≤ 0.2
12,SRPI,≤ 0.2
13,RIMI,≤ 0.2
14,GRHG,≤ 0.2
15,RAMI,≤ 0.2
16,TVSM,≤ 0.2
17,MSAT,≤ 0.2
18,FACS,≤ 0.2
19,LMFY,≤ 0.2
20,YSTS,≤ 0.2
21,DSTR,≤ 0.2
22,LIAR,≤ 0.2
23,QPPH,≤ 0.2
24,YCET,≤ 0.2

row,Variant,one-hybrid fitness for binding NBS DNA
1,LGWS,≤ 0.2
2,RNGD,≤ 0.2
3,MSCY,≤ 0.2
4,HMTT,≤ 0.2
5,WHKF,≤ 0.2
6,RYMK,≤ 0.2
7,IYMI,≤ 0.2
8,MATQ,≤ 0.2
9,NPVQ,≤ 0.2
10,QVLD,≤ 0.2
11,PVPG,≤ 0.2
12,AHAS,≤ 0.2
13,FLSG,≤ 0.2
14,VCCY,≤ 0.2
15,RALE,≤ 0.2
16,GCTA,≤ 0.2
17,FTEL,≤ 0.2
18,SANG,≤ 0.2
